From the supplement of paper PMC8728848
The list shows a part of the results.

Columns and labels:
Experiment in all cases: glycan array binding signal (z-score within array); higher = stronger binding
Conditions in all cases: glycan notation: IUPAC condensed, linker removed
[1] = target: Fuc(a1-2)[GalNAc(a1-3)]Gal(b1-4)Glc
Summary of the method: (§1)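 Glycan array binding is given as a within-array Z-score, which can be read as non-binding when negative. The arrays, 3228 of them, came from the Consortium for Functional Glycomics database and were retained only where the protein sequence was available. Z-scores were averaged across arrays of the same protein sequence at different concentrations or buffers and across linkers.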

[2] = target: Fuc(a1-2)[GalNAc(a1-3)]Gal(b1-4)GlcNAc
Summary of the method: as §1

[3] = target: Fuc(a1-2)[GalNAc(a1-3)]Gal(b1-4)GlcNAc(b1-2)Man
Summary of the method: as §1

[4] = target: Fuc(a1-2)[GalNAc(a1-3)]Gal(b1-4)GlcNAc(b1-2)Man(a1-3)[Fuc(a1-2)[GalNAc(a1-3)]Gal(b1-4)GlcNAc(b1-2)Man(a1-6)]Man(b1-4)GlcNAc(b1-4)GlcNAc
Summary of the method: as §1

[5] = target: Fuc(a1-2)[GalNAc(a1-3)]Gal(b1-4)GlcNAc(b1-2)Man(a1-3)[Fuc(a1-2)[GalNAc(a1-3)]Gal(b1-4)GlcNAc(b1-2)Man(a1-6)]Man(b1-4)GlcNAc(b1-4)[Fuc(a1-6)]GlcNAc
Summary of the method: as §1

[6] = target: Fuc(a1-2)[GalNAc(a1-3)]Gal(b1-4)GlcNAc(b1-3)Gal(b1-4)GlcNAc
Summary of the method: as §1

[7] = target: Fuc(a1-2)[GalNAc(a1-3)]Gal(b1-4)GlcNAc(b1-3)Gal(b1-4)GlcNAc(b1-3)Gal(b1-4)GlcNAc
Summary of the method: as §1

[8] = target: Fuc(a1-2)[GalNAc(a1-3)]Gal(b1-4)GlcNAc(b1-3)GalNAc
Summary of the method: as §1

[9] = target: Fuc(a1-2)[GalNAc(a1-3)]Gal(b1-4)GlcNAc(b1-3)[Fuc(a1-2)[GalNAc(a1-3)]Gal(b1-4)GlcNAc(b1-6)]GalNAc
Summary of the method: as §1

[10] = target: Fuc(a1-2)[GalNAc(a1-3)]Gal(b1-4)GlcNAc(b1-6)GalNAc
Summary of the method: as §1

[11] = target: Fuc(a1-2)[GalNAc(a1-3)]Gal(b1-4)[Fuc(a1-3)]GlcNAc
Summary of the method: as §1

[12] = target: Fuc(a1-2)[GalNAc(a1-3)]Gal(b1-4)[Fuc(a1-3)]GlcNAc(b1-3)GalNAc
Summary of the method: as §1

[13] = target: Fuc(a1-2)[GalNAc(a1-4)]Gal(b1-4)GlcNAc
Summary of the method: as §1

[14] = target: Fuc(a1-2)[GalNAc(b1-3)]Gal
Summary of the method: as §1

Fuc(a1-3)GlcNAc = target: Fuc(a1-3)GlcNAc
Summary of the method: as §1

[15] = target: Fuc(a1-3)[Gal(b1-4)]Glc6S
Summary of the method: as §1

[16] = target: Fuc(a1-3)[Gal(b1-4)]GlcNAc
Summary of the method: as §1

[17] = target: Fuc(a1-3)[Gal(b1-4)]GlcNAc(b1-2)Man
Summary of the method: as §1

[18] = target: Fuc(a1-3)[Gal(b1-4)]GlcNAc(b1-2)Man(a1-3)[Fuc(a1-3)[Gal(b1-4)]GlcNAc(b1-2)Man(a1-6)]Man(b1-4)GlcNAc(b1-4)GlcNAc
Summary of the method: as §1

[19] = target: Fuc(a1-3)[Gal(b1-4)]GlcNAc(b1-2)Man(a1-3)[Fuc(a1-3)[Gal(b1-4)]GlcNAc(b1-2)Man(a1-6)]Man(b1-4)GlcNAc(b1-4)[Fuc(a1-6)]GlcNAc
Summary of the method: as §1

[20] = target: Fuc(a1-3)[Gal(b1-4)]GlcNAc(b1-3)Gal(b1-3)[Fuc(a1-4)]GlcNAc
Summary of the method: as §1

[21] = target: Fuc(a1-3)[Gal(b1-4)]GlcNAc(b1-3)GalNAc
Summary of the method: as §1

[22] = target: Fuc(a1-3)[Gal(b1-4)]GlcNAc(b1-4)Gal(b1-4)[Fuc(a1-3)]GlcNAc
Summary of the method: as §1

[23] = target: Fuc(a1-3)[Gal(b1-4)]GlcNAc(b1-4)Gal(b1-4)[Fuc(a1-3)]GlcNAc(b1-4)Gal(b1-4)[Fuc(a1-3)]GlcNAc
Summary of the method: as §1

[24] = target: Fuc(a1-3)[Gal(b1-4)]GlcNAc(b1-6)GalNAc
Summary of the method: as §1

[25] = target: Fuc(a1-3)[Gal(b1-4)]GlcNAc(b1-6)[Gal(b1-3)GlcNAc(b1-3)]Gal(b1-4)Glc
Summary of the method: as §1

[26] = target: Fuc(a1-3)[Gal(b1-4)]GlcNAc6S
Summary of the method: as §1

[27] = target: Fuc(a1-3)[Gal3S(b1-4)]Glc
Summary of the method: as §1

[28] = target: Fuc(a1-3)[Gal3S(b1-4)]GlcNAc
Summary of the method: as §1

[29] = target: Fuc(a1-3)[Gal3S(b1-4)]GlcNAc6S
Summary of the method: as §1

[30] = target: Fuc(a1-3)[GalNAc(b1-4)]GlcNAc
Summary of the method: as §1

[31] = target: Fuc(a1-3)[GalNAc(b1-4)]GlcNAc6S
Summary of the method: as §1

Fuc(a1-4)GlcNAc = target: Fuc(a1-4)GlcNAc
Summary of the method: as §1

Fuc(b1-3)GlcNAc = target: Fuc(b1-3)GlcNAc
Summary of the method: as §1

Gal(a1-2)Gal = target: Gal(a1-2)Gal
Summary of the method: as §1

Gal(a1-3)Gal = target: Gal(a1-3)Gal
Summary of the method: as §1

Gal(a1-3)Gal(b1-3)GlcNAc = target: Gal(a1-3)Gal(b1-3)GlcNAc
Summary of the method: as §1

[32] = target: Gal(a1-3)Gal(b1-3)GlcNAc(b1-2)Man
Summary of the method: as §1

[33] = target: Gal(a1-3)Gal(b1-3)GlcNAc(b1-2)Man(a1-3)[Gal(a1-3)Gal(b1-3)GlcNAc(b1-2)Man(a1-6)]Man(b1-4)GlcNAc(b1-4)GlcNAc
Summary of the method: as §1

[34] = target: Gal(a1-3)Gal(b1-3)GlcNAc(b1-3)GalNAc
Summary of the method: as §1

[35] = target: Gal(a1-3)Gal(b1-3)GlcNAc(b1-6)GalNAc
Summary of the method: as §1

[36] = target: Gal(a1-3)Gal(b1-3)[Fuc(a1-4)]GlcNAc(b1-2)Man(a1-3)[Gal(a1-3)Gal(b1-3)[Fuc(a1-4)]GlcNAc(b1-2)Man(a1-6)]Man(b1-4)GlcNAc(b1-4)GlcNAc
Summary of the method: as §1

Gal(a1-3)Gal(b1-4)Glc = target: Gal(a1-3)Gal(b1-4)Glc
Summary of the method: as §1

Gal(a1-3)Gal(b1-4)GlcNAc = target: Gal(a1-3)Gal(b1-4)GlcNAc
Summary of the method: as §1

[37] = target: Gal(a1-3)Gal(b1-4)GlcNAc(b1-2)Man
Summary of the method: as §1

B1: F17-L (Escherichia coli) (protein)
chain: GPDDYVPSQIAVNTSTLPGVVIGPADAHTYPRVIGELAGTSNQYVFNGGAIALMRGKFTPALPKIGSITYTFHQGNSRDSSDFDIYDIGVSGLGIIIGMAGYWPATPLVPINSSGIYIDPVGANTNPNTYNGATASFGARLFVAFVATGRLPNGYITIPTRQLGTILLEAKRTSLNNKGLTAPVMLNGGRIQVQSQTHHHHHH
B1 was tested, and the “glycan array binding signal (z-score)” value [1] was -0.051, the “glycan array binding signal (z-score)” value [2] was -0.114 and the “glycan array binding signal (z-score)” value [3] was -0.014. The “glycan array binding signal (z-score)” value [4] was -0.152, the “glycan array binding signal (z-score)” value [5] was -0.08 and the “glycan array binding signal (z-score)” value [6] was -0.177. For the same binder, the “glycan array binding signal (z-score)” value [7] was -0.015, the “glycan array binding signal (z-score)” value [8] was 0.026 and the “glycan array binding signal (z-score)” value [9] was -0.112. For the same binder, the “glycan array binding signal (z-score)” value [10] was -0.121, the “glycan array binding signal (z-score)” value [11] was -0.083 and the “glycan array binding signal (z-score)” value [12] was -0.046. For the same binder, the “glycan array binding signal (z-score)” value [13] was -0.152, the “glycan array binding signal (z-score)” value [14] was -0.064 and the “glycan array binding signal (z-score)” value (Fuc(a1-3)GlcNAc) was -0.198. For the same binder, the “glycan array binding signal (z-score)” value [15] was -0.015, the “glycan array binding signal (z-score)” value [16] was -0.031 and the “glycan array binding signal (z-score)” value [17] was 0.069. For the same binder, the “glycan array binding signal (z-score)” value [18] was -0.072, the “glycan array binding signal (z-score)” value [19] was -0.109 and the “glycan array binding signal (z-score)” value [20] was -0.204. The “glycan array binding signal (z-score)” value [21] was -0.194, the “glycan array binding signal (z-score)” value [22] was -0.163 and the “glycan array binding signal (z-score)” value [23] was -0.066. The “glycan array binding signal (z-score)” value [24] was -0.091, the “glycan array binding signal (z-score)” value [25] was 0.021 and the “glycan array binding signal (z-score)” value [26] was -0.058. The “glycan array binding signal (z-score)” value [27] was -0.092, the “glycan array binding signal (z-score)” value [28] was -0.117 and the “glycan array binding signal (z-score)” value [29] was 0.056. The “glycan array binding signal (z-score)” value [30] was -0.094, the “glycan array binding signal (z-score)” value [31] was -0.121 and the “glycan array binding signal (z-score)” value (Fuc(a1-4)GlcNAc) was -0.059. The “glycan array binding signal (z-score)” value (Fuc(b1-3)GlcNAc) was -0.089, the “glycan array binding signal (z-score)” value (Gal(a1-2)Gal) was -0.191 and the “glycan array binding signal (z-score)” value (Gal(a1-3)Gal) was -0.169. For the same binder, the “glycan array binding signal (z-score)” value (Gal(a1-3)Gal(b1-3)GlcNAc) was -0.069, the “glycan array binding signal (z-score)” value [32] was -0.155 and the “glycan array binding signal (z-score)” value [33] was -0.086. The “glycan array binding signal (z-score)” value [34] was -0.023, the “glycan array binding signal (z-score)” value [35] was -0.22 and the “glycan array binding signal (z-score)” value [36] was 0.699. For the same binder, the “glycan array binding signal (z-score)” value (Gal(a1-3)Gal(b1-4)Glc) was 0.486, the “glycan array binding signal (z-score)” value (Gal(a1-3)Gal(b1-4)GlcNAc) was -0.176 and the “glycan array binding signal (z-score)” value [37] was 0.391.
